Source: the supplement of paper PMC8728848
Some of the results follow.

What was measured:
Experiment in all cases: glycan array binding signal (z-score within array); higher = stronger binding
Conditions in all cases: glycan notation: IUPAC condensed, linker removed
[1] = target: Gal(b1-3)GlcNAc(b1-2)Man(a1-3)[Gal(b1-3)GlcNAc(b1-2)Man(a1-6)]Man(b1-4)GlcNAc(b1-4)GlcNAc
Method in brief: (§1)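 The binding signal is a Z-score computed within each array and averaged over linkers. Arrays of the same protein sequence at different concentrations or buffers were also averaged together. Data originate from 3228 arrays in the Consortium for Functional Glycomics database, kept only where the protein sequence was available.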

[2] = target: Gal(b1-3)GlcNAc(b1-2)Man(a1-3)[Gal(b1-3)GlcNAc(b1-2)Man(a1-6)]Man(b1-4)GlcNAc(b1-4)[Fuc(a1-6)]GlcNAc
Method in brief: as §1

[3] = target: Gal(b1-3)GlcNAc(b1-2)Man(a1-3)[GlcNAc(b1-4)][Gal(b1-3)GlcNAc(b1-2)Man(a1-6)]Man(b1-4)GlcNAc(b1-4)GlcNAc
Method in brief: as §1

[4] = target: Gal(b1-3)GlcNAc(b1-2)[Gal(b1-3)GlcNAc(b1-6)]Man(a1-6)[Gal(b1-3)GlcNAc(b1-2)Man(a1-3)]Man(b1-4)GlcNAc(b1-4)GlcNAc
Method in brief: as §1

[5] = target: Gal(b1-3)GlcNAc(b1-3)Gal(b1-3)GlcNAc
Method in brief: as §1

[6] = target: Gal(b1-3)GlcNAc(b1-3)Gal(b1-4)Glc
Method in brief: as §1

[7] = target: Gal(b1-3)GlcNAc(b1-3)Gal(b1-4)GlcNAc
Method in brief: as §1

[8] = target: Gal(b1-3)GlcNAc(b1-3)Gal(b1-4)GlcNAc(b1-2)Man(a1-3)[Gal(b1-3)GlcNAc(b1-3)Gal(b1-4)GlcNAc(b1-2)Man(a1-6)]Man(b1-4)GlcNAc(b1-4)GlcNAc
Method in brief: as §1

[9] = target: Gal(b1-3)GlcNAc(b1-3)Gal(b1-4)GlcNAc(b1-2)[Gal(b1-3)GlcNAc(b1-3)Gal(b1-4)GlcNAc(b1-6)]Man(a1-6)[Gal(b1-3)GlcNAc(b1-3)Gal(b1-4)GlcNAc(b1-2)Man(a1-3)]Man(b1-4)GlcNAc(b1-4)[Fuc(a1-6)]GlcNAc
Method in brief: as §1

[10] = target: Gal(b1-3)GlcNAc(b1-3)Gal(b1-4)GlcNAc(b1-3)Gal(b1-4)GlcNAc(b1-2)[Gal(b1-3)GlcNAc(b1-3)Gal(b1-4)GlcNAc(b1-3)Gal(b1-4)GlcNAc(b1-6)]Man(a1-6)[Gal(b1-3)GlcNAc(b1-3)Gal(b1-4)GlcNAc(b1-3)Gal(b1-4)GlcNAc(b1-2)Man(a1-3)]Man(b1-4)GlcNAc(b1-4)[Fuc(a1-6)]GlcNAc
Method in brief: as §1

[11] = target: Gal(b1-3)GlcNAc(b1-3)Gal(b1-4)GlcNAc(b1-6)[Gal(b1-3)GlcNAc(b1-3)]Gal(b1-4)Glc
Method in brief: as §1

[12] = target: Gal(b1-3)GlcNAc(b1-3)Gal(b1-4)[Fuc(a1-3)]GlcNAc
Method in brief: as §1

[13] = target: Gal(b1-3)GlcNAc(b1-3)Gal(b1-4)[Fuc(a1-3)]GlcNAc(b1-6)[Gal(b1-3)GlcNAc(b1-3)]Gal(b1-4)Glc
Method in brief: as §1

[14] = target: Gal(b1-3)GlcNAc(b1-3)GalNAc
Method in brief: as §1

[15] = target: Gal(b1-3)GlcNAc(b1-6)Gal(b1-4)GlcNAc
Method in brief: as §1

[16] = target: Gal(b1-3)GlcNAc(b1-6)GalNAc
Method in brief: as §1

[17] = target: Gal(b1-3)GlcNAc(b1-6)[Gal(b1-3)]GalNAc
Method in brief: as §1

Gal(b1-3)GlcNAc6S = target: Gal(b1-3)GlcNAc6S
Method in brief: as §1

[18] = target: Gal(b1-3)[Fuc(a1-4)]GlcNAc
Method in brief: as §1

[19] = target: Gal(b1-3)[Fuc(a1-4)]GlcNAc(b1-2)Man
Method in brief: as §1

[20] = target: Gal(b1-3)[Fuc(a1-4)]GlcNAc(b1-2)Man(a1-3)[Gal(b1-3)[Fuc(a1-4)]GlcNAc(b1-2)Man(a1-6)]Man(b1-4)GlcNAc(b1-4)[Fuc(a1-6)]GlcNAc
Method in brief: as §1

[21] = target: Gal(b1-3)[Fuc(a1-4)]GlcNAc(b1-3)Gal(b1-3)[Fuc(a1-4)]GlcNAc
Method in brief: as §1

[22] = target: Gal(b1-3)[Fuc(a1-4)]GlcNAc(b1-3)Gal(b1-4)[Fuc(a1-3)]GlcNAc
Method in brief: as §1

[23] = target: Gal(b1-3)[Fuc(a1-4)]GlcNAc(b1-6)GalNAc
Method in brief: as §1

[24] = target: Gal(b1-3)[GlcNAc(b1-6)]GalNAc
Method in brief: as §1

[25] = target: Gal(b1-3)[Neu5Ac(a2-6)]GalNAc
Method in brief: as §1

[26] = target: Gal(b1-3)[Neu5Ac(a2-6)]GlcNAc(b1-4)Gal(b1-4)Glc
Method in brief: as §1

[27] = target: Gal(b1-3)[Neu5Ac(b2-6)]GalNAc
Method in brief: as §1

Gal(b1-4)Gal = target: Gal(b1-4)Gal
Method in brief: as §1

[28] = target: Gal(b1-4)GalNAc(a1-3)[Fuc(a1-2)]Gal(b1-4)GlcNAc
Method in brief: as §1

B1: Cp ZmpB (Clostridium perfringens), Q0TR08 (protein)
chain: MNKRKIAAIILATMITNLSATTIDVLAQELNTKNNSKVEVSHDDESHQARVSKFDLYNSDKLDAYNQEFQVSRSNIKSINNNGGKYNSSTIDKAIDGNLETHWETGKPNDANFTNEVVVTFNEITNIDRIVYSARRDSARGKGFAKEFEIYASLKDEGDDFNLVSSGEYTESTRDLVEIKFNPTDFKRLKFKFKKADQNWASAAEFMFYKEDKLNEKFNGLFTDSSMNKVSEEFNTLEKLNAFENELKDHPIYDLYKEGLNNARAILTETSENPTKATLGQITYNLNDDYNNQYRMPYKNIKAIKNNGRHYAAQNIEKAIDNDVNTYWETGTLNSSSFNNEVEVEFNDLVTLDRIVYGSRQSDLKGFAEEVYIYASRTSKGDTYKLVATGAHEATKGLVEAKFEPTEFKRVKFKFKKSKQNSATLNELMFYKPDEVYSSIPKLFTDGTMSELSEEFNSLEKINAFKEKAKNHPLYNDFNETIELAESLISNPRKEDVLELEMRGDSISEAKKRKVWNFQDWQITGLSARAGDKITVYVDVAEGDPTPTLLYKQSLTQHGGATSFQLKPGKNEITIPEINYESNGIPKDVIQGGDLFFTNYKSDSQKRAPKVRIEGASKYPVFILGKSDENEVMKELEAYVEKIKAEPKTTPNIFAVSSNKSLEFVQATYALDWYKKNNKTPKYTAEQWDQYIADAMGFWGFDNSKDVNSDFNFRIMPMVKNLSGGAFMNAGNGVIGIRPGNQDAILAANKGWGVAHELGHNFDTGGRTIVEVTNNMMPLFFESKYKTKTRITDQNIWENNTYPKVGLDDYSNNELYNKADSTHLAQLAPLWQLYLYDNTFYGKFERQFRERDFGNKNREDIYKSWVVAASDAMELDLTEFFARHGIRVDDKVKEDLAKYPKPDKKIYYLNDLAMNYKGDGFTENAKVSVSTSGSNGNIKLSFSVDDENKDNILGYEIRRDGKYVGFTSNDSFVDTKSNLDEDGVYVVTPYDRKLNTLNPIEVNALQPTLSVNPVITLALGEEFNEEEYIVAKDIKGNSLSESVKVKSSNVNTSKVGEYEVLYSLEDSKGNEYTKTSKVNVVSRKEYMSDLTPKQSSNGWGTVRKDKSISGGVIGLTRDGDFVDYNKGLGLHSNAEYVYDLEGKDYDYFESYVGVDKAMSSRPASSVIFKVLVDGEEKFNSGVMRSTTPQKYVKVDVKNAKELKLIVNDAGDGDSSDHASFGDAKLATLSSKPIIKGENLAYSMDEKVDLMKGITATDIEDGNITSKVQIKSSDFVEGKSGIFTVVYSVTDSDGLTSECSRTIAVTDKETQLSDLNWKSATIGSGSVRKDRAVSGNQIRLLNEDNSVETFAKGIGTHSYSEIVYNSEGYDIFDTWVGIDRHVADKKVSSVKFKVYVDGELKAETDVMRIDTPKKRLVVDVRNSKEIKLVVDVADNGNNWDHADWADAKFRNLAEYDASELNKAIEEAKKLDLNNYTEESSEALKNAISKGEEALLSKDKETINSALEELNKEMNSLVKVDLNAVINIPDKYLLKSIQNQLNKTGDITLGDMYSLTTLTLSGVEDLTGLENAKNLETLNMDYNEVKDLRPLSKLKKLNTLNAQEQFIAAGELKPSNGKVIGDSKVYNREGKNVAKTIRVVDKNGNTILEQDAKDEFTINTKDLSSGLYGVHVLFEDEGFSGVMFYLFNV
[1]
  glycan array binding signal (z-score): -0.119
[2]
  glycan array binding signal (z-score): -0.193
[3]
  glycan array binding signal (z-score): -0.137
[4]
  glycan array binding signal (z-score): -0.237
[5]
  glycan array binding signal (z-score): 0.693
[6]
  glycan array binding signal (z-score): -0.316
[7]
  glycan array binding signal (z-score): -0.081
[8]
  glycan array binding signal (z-score): -0.399
[9]
  glycan array binding signal (z-score): 0.123
[10]
  glycan array binding signal (z-score): 0.131
[11]
  glycan array binding signal (z-score): -0.416
[12]
  glycan array binding signal (z-score): -0.401
[13]
  glycan array binding signal (z-score): -0.322
[14]
  glycan array binding signal (z-score): 0.148
[15]
  glycan array binding signal (z-score): 0.253
[16]
  glycan array binding signal (z-score): -0.228
[17]
  glycan array binding signal (z-score): 0.823
Gal(b1-3)GlcNAc6S
  glycan array binding signal (z-score): -0.065
[18]
  glycan array binding signal (z-score): -0.339
[19]
  glycan array binding signal (z-score): 0.248
[20]
  glycan array binding signal (z-score): 0.786
[21]
  glycan array binding signal (z-score): -0.285
[22]
  glycan array binding signal (z-score): -0.183
[23]
  glycan array binding signal (z-score): 0.124
[24]
  glycan array binding signal (z-score): -0.284
[25]
  glycan array binding signal (z-score): -0.329
[26]
  glycan array binding signal (z-score): -0.24
[27]
  glycan array binding signal (z-score): 0.169
Gal(b1-4)Gal
  glycan array binding signal (z-score): -0.237
[28]
  glycan array binding signal (z-score): 0.022
